Measurements taken from the supplement of paper PMC10126150.
Values marked as one replicate rest on one cluster of the flow cell; about a third of the high ones do not repeat.

Test system: ATP
Assay: switch fluorescence ratio, 500 uM ATP over buffer (Cy3 cluster intensity, sum of 5 cycles each) (fold (ratio)); higher = stronger signal-on switching upon ATP binding; sequences stand for … in TCGTCGGCAGCGTCAGATGTGTATAAGAGACAGTTTTTTTTTTTTTTTTTTTTTTTTT…TC
Conditions: aptamer strand: ATP DNA aptamer (quencher-CACCTGGGGGAGTATTGCGGAGGAAGG + anchor), 100 nM annealed; ATP concentration: 500 uM; one replicate
Procedure, shortened: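 Imaging in selection buffer was followed by imaging after 15 min with 500 uM ATP at 22 °C, for Cy3-labelled switching-strand clusters annealed to 100 nM quencher-labelled ATP aptamer on a modified Illumina MiSeq flow-cell. Five of these buffer/ATP cycles ran, separated by NaOH stripping and re-annealing. The fluorescence ratio per cluster is summed target-cycle over summed buffer-cycle Cy3 intensity, averaged per switch-domain sequence; clusters outside 100-1000 RFU were removed.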
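Note: ATP exposure 15 min at 22 °C before imaging.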

Sequence	switch fluorescence ratio
TGGCGGCGT	1.01
GATTCTAACC	1.02
TGGCTCAACT	1
CTGAGTGTCA	0.969
ATCGAAGACG	0.994
TTGAGGGTTA	0.963
TCGCCACAAG	1.22
ACAGAGGTGT	1.03
GCAGTATTTA	1
TATTCGTGCA	1.04
GCTGTGCCTC	0.989
AACTTGCTTT	0.98
CCCCAACAGC	1.73
CGGGCATCTG	1.04
TAACGGACAT	1.02
CAATTAAG	0.953
CTTCAACCGC	1.2
TAGGCTGTCC	1
GGTTCGACC	0.999
ACCTTCGGCT	1.16
GCCCAACGAG	1.02
AAAAAGGTAG	1.04
ACACGTCAAG	1.08
TTCCTTTCA	1.13
GCTGTGATCT	0.95
CCGTATCAGT	1.05

Sequence	switch fluorescence ratio
CTAGTTTAGT	1
GGATGCTGG	0.943
GCCTCAAACA	1.02
TCACATTCGT	1.02
CTCAGGGGT	1.22
GCTGTACTGA	1.1
GTTTGTGAC	1.01
ATTACGATT	1.04
GTAGTTCTGT	1.03
GCGAACAGTC	1.05
ACTATGAAGA	1.03
GCTCAACGCC	1.05
CTGTGTACGT	1
AATACTTTCG	1.1
ATCAAAGCAA	2.38
CCTGGGGTCC	1.04
AGGGTAGTCA	1.03
TCAGGGAAGA	0.969
TAGGATTATC	1
ATATAAAGGT	0.967
AACCTGAATT	1.08
TGCTATAGGA	0.987
GTTTAGAAGT	0.98
GAGCAGCCGA	0.975
ATCTATTCAG	0.993
AACATAGAGG	1.01

Sequence	switch fluorescence ratio
TGCCGAAATG	1.04
CACTTGTCTG	0.981
CGGTCGACAG	1.01
CGGATCATTG	0.977
CGTTCAAAGG	1.05
AATTTGCGTG	0.965
GTTTTCCACC	1.07
GTAATCGGAT	0.983
AGTCAACCAG	1.19
AAGTTCTAGC	0.948
AGCGCCTCGT	1.01
GAGACCGTCG	0.919
ACTTTTAGAT	1.04
CGAATCAATG	1.06
TTGCTGAACG	1
CATTTGCCGG	0.958
CGAGTATCGG	0.975
CGCCGGGTAA	1.02
TAAAGAATGT	0.98
GCTAGTTAG	1.01
ATTAACTATC	0.937
GCTGCTAGGA	0.99
GCCTCAACTA	1.01
ATCAATTTCG	1.08
AATAGTGCTT	0.998
ATGACCGAAG	1

Sequence	switch fluorescence ratio
CGGTGGTCCT	1.03
TTATAGCAGA	0.988
GCTGGCGTCT	1.07
TATCCTTGCC	1.22
GGCGCCTTG	1.3
CGCATTCGAT	1.43
TCAGACGG	1
CCAGTCGAAA	1
AGTTTGTAAC	1.03
TCGCTTGGAT	0.986
ACCCCGGGG	0.994
GGTAGAACCT	1.37
ATGGATCTAA	0.969
TTGCTGGTAC	1.06
GCATCTTGAC	1.04
TCGGACTATG	1.04
TACTCGAA	1.01
AAAGCGGAAC	1.21
TCCCTCGTA	1.02
ATCGAAGTCT	0.97
AGAATCGGTT	1
CTTAAAAGAA	0.988
TTCCGCGGGC	1.12
ACGCTTATTG	1.06
TATTGGTTTC	0.998
CACGGGGAG	1.07

Sequence	switch fluorescence ratio
AGTGTAAATT	0.993
CTGGTAGTCT	1.04
CTTGATTGTG	0.992
GTTCACGCAT	1.22
GGAGGGGG	1.07
GAATCGATTC	1.02
CCCCATTTTG	0.995
CGCTCGGGTA	0.983
ACGCACAATG	1.33
GCTCGCAAGT	1.17
GCTTTGGGAG	1.03
TAAATATGGC	0.98
CCGTTGGTGC	1.49
TTCCCTGCTC	1.37
TGTCCTGTCG	1.07
GCTCGCGGTA	1.13
GTTTCAAAGT	1.02
GTCGCAGGCT	1.04
ATAAGCCGAG	0.982
GTGGGTTTAT	0.96
TAACATAC	1.52
TTCTAAGCTT	1.15
TGGTGACCCT	0.995
ATACTTT	1.01
GGGAAATGTA	0.983
ACAAAAAAGA	0.994

Sequence	switch fluorescence ratio
TCATTGCTCT	0.949
GTAAACGCCG	1.02
TGTTGGGGTC	0.996
AACGGCCAAC	1.14
ATATAATTCG	0.98
ACAGAAAGGC	1.07
TTTTTACTTC	1.04
TCATCAGGAA	1.31
TTACCGTTAC	1.39
TATGAGCCCT	1.01
AAATCGAAT	0.991
TAAGGTGGAG	1.02
GATGTGGTTA	1.01
ATGAGCGATG	1
GACTCGCATT	3.31
CGAAGTTGCA	0.982
TGTCGTAGAA	0.946
TCTGATTTC	1.12
GGTGATCTAA	1.01
CGGCTATAAT	1.07
CTTCGTGTAA	1.12
CGGATCAAAT	1
AAAGGTGTGG	0.991
AGATATTTCC	1.04
GAGATGTCTG	0.985
GCGCGTTCA	0.995

Sequence	switch fluorescence ratio
TAAGCACTA	1.21
CCAGTACGGA	0.996
AGGGCCGGG	1.17
ATATGCTTTA	1.01
AAGGTGGCTT	1.02
CACTACCGAG	1.13
CAGAGGCGGA	0.968
ACGCGAAGTA	1.02
CGAAATGGGG	0.945
TTATTTCATA	1.04
ATTACTTCTT	1.04
GGCTGAGTCC	1.01
AGTTCTAGCT	0.974
ACTTTGGGCT	0.991
TTGATCTCTC	0.994
TCAAGTGGCG	1.04
ATGTGAGTGG	0.97
ACTCGGCCTT	1.08
CACGGTGGCA	0.979
ATCTAGGAGG	0.977
ATACGTGACC	1.43
AGTTCTGCGC	1.03
GTTTGCCGAC	1.02
GTACTCGTGG	0.988
AAAACTCCAT	1.01
TGACTCCATT	1.04

Sequence	switch fluorescence ratio
TGATGCTAA	1.04
GATAGATACT	0.996
ATTGCGCATC	1.19
GATCGCGTCG	1
CTTGCAAAGT	1.04
GCCTTCATT	0.991
CGAGGAAGTG	1
TCGAGCCGTG	1.02
CATTGCGCTT	1.07
GCAATCT	1.47
CAAAACTACG	1.02
TCTCCTCTTC	1.14
AGACCAAGTG	0.972
CTTCTTCAGA	1.04
CCTGGTTAG	1.02
CTAGTTCCGG	0.971
TTTTTACAAA	1.26
CAAACCATCA	1.11
CTGTCAGTA	1.02
